Measured values published in paper PMC4336329 (PLoS ONE, 2015).
Out of some 310,000 compounds screened, about 14,000 (4.5%) showed an effect of 50% or more. The effect is printed as a negative number. This is one part of the list.

Target: human ether-à-go-go-related gene (hERG) potassium channel (human, UniProt Q12809)
Assay: primary screen, population patch clamp on CHO cells stably expressing hERG
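Also: peak tail current of the secondary pulse compared with the same well before compound.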

Chain of human ether-à-go-go-related gene (hERG) potassium channel (Q12809 whole entry, looked up): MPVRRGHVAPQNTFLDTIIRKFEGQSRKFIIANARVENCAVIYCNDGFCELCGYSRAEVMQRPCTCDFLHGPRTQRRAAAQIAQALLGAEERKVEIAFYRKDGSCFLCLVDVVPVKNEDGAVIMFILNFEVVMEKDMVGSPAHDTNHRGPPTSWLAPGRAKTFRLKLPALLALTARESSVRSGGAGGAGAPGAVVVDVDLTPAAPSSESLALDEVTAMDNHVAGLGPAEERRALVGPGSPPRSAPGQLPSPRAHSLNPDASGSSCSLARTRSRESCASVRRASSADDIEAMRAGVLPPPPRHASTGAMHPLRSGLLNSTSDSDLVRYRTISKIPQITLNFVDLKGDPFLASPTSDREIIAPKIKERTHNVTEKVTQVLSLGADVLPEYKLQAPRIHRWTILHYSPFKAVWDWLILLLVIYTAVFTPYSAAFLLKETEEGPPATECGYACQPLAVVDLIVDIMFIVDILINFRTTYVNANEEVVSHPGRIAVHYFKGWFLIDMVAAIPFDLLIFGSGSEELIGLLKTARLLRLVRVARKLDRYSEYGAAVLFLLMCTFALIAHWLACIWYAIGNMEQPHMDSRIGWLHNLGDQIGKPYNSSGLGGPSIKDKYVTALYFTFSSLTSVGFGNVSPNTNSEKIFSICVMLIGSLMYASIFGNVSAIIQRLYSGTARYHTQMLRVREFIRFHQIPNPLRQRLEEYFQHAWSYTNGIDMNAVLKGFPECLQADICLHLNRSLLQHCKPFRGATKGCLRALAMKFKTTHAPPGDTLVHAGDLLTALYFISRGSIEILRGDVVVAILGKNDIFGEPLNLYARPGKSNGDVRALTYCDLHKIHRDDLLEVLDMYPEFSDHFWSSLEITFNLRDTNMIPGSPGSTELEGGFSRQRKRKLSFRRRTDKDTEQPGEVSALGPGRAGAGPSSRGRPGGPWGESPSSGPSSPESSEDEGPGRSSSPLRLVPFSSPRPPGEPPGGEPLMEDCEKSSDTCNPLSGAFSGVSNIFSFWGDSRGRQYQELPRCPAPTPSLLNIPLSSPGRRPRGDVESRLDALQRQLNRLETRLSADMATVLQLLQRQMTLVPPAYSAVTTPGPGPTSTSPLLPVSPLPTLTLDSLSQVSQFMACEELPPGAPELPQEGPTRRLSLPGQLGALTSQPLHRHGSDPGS

Row | Structure (SMILES) | hERG current change (%, negative = inhibition) at 10uM [%]
1 | COC(=O)C1=C(c2ccc(-c3ccccc3)c(F)c2)C[C@@H]2CC[C@H]1N2C(=O)NCCCOC(C)C | -8.7
2 | Cc1ccccc1NC(=O)COC(=O)C1CC2CCCC(C1)C2=O (stereo not drawn) | 11.3
3 | Cc1cc(NC(=O)/C(C#N)=C/c2ccc(-c3ccc(SC(F)F)cc3)o2)n(-c2ccccc2)n1 | 10.3
4 | COc1cccc(OC)c1OCCCCCCN1CCN(C)CC1.Cl | 8.54
5 | COc1ccc2nnc(-c3ccc(C(F)(F)F)cc3)n2n1 | 1.99
6 | COc1cccc2cc(C(=O)NCc3ccco3)c(=O)oc12 | 2.32
7 | O=C(/C=C/c1c(Cl)cccc1Cl)Nc1ccncc1 | 2.18
8 | COC(=O)CSc1nc(C)cc(N2CCOCC2)n1 | 7.89
9 | O=C1CC(=O)Nc2cc(S(=O)(=O)N3CCN(c4cccc(C(F)(F)F)c4)CC3)ccc2N1 | -11.3
10 | COC(=O)c1sccc1N(C)S(C)(=O)=O | 22.7
11 | COc1ccc(C(=O)C2CCCN(Cc3cn[nH]c3-c3ccc(F)cc3)C2)cc1OC (stereo not drawn) | -66.5
12 | Brc1cc2c(cc1/C=N/Nc1nc(N3CCOCC3)nc(N3CCOCC3)n1)OCO2 | -5
13 | C1CCC2(CC1)C1=C(CCCC1)Nc1nnnn12 | -2.9
14 | COc1ccc(NC(=O)C(CCSC)NC(N)=O)cc1NS(=O)(=O)c1ccc(F)cc1 (stereo not drawn) | 24.7
15 | CC(=O)NC1=NN(C(C)=O)C(C)(c2ccc(C)cc2)S1 (stereo not drawn) | 8.82
16 | COC(=O)c1sccc1NC(=O)CC1C(=O)NCCN1C(=O)c1ccc(N(C)C)cc1 (stereo not drawn) | 7.57
17 | N#CCC(=O)Nc1ccc(C(=O)Nc2cccc(S(N)(=O)=O)c2)cc1 | 29
18 | CC(C)c1ccc(-n2nc3ccc(N)cc3n2)cc1 | -2.17
19 | CC1CCCN(CCCNC(=O)C2CC(=O)N(c3ccc(F)c(Cl)c3)C2)C1 (stereo not drawn) | -37.9
20 | CCCNc1c(NC(=O)c2cccs2)c(=O)oc2ccccc12 | 13.3
21 | Cc1oc2ccc(O)cc2c1C(=O)OC(C)C | 4.47
22 | O=C(O)COc1ccccc1/C=C1\SC(=S)N(/N=C/c2ccccc2O)C1=O | 38.2
23 | CC(=O)N1CCCN(Cc2cn(-c3cc(C)ccc3C)nc2-c2ccccc2)CC1 | -30.3
24 | Cc1cc(OCc2nn[nH]n2)c2c3c(c(=O)oc2c1)CCCC3 | 12.1
